From ChEMBL document CHEMBL4888484, “Replenishing the malaria drug discovery pipeline: Screening and hit evaluation of the MMV Hit Generation Library 1 (HGL1) against asexual blood stage Plasmodium falciparum ,using a nano luciferase reporter read-out” (2022) come the findings set out here.

Out of some 150,000 compounds screened, about 540 (0.36%) showed an effect of 50% or more. The list shows a part of the results.

This assay concerns Plasmodium falciparum. Description: Primary screen in NF54 nanoGlo assay, in single point, at 2uM, 72h; a lower Z score goes with more inhibition. The format is functional, Erythrocyte. Particulars: timepoint 72 hour.
Regarding `CCN([C@H]1CCCOC1)S(=O)(=O)c1cn(C)nc1C1CCCC1`, the “% Inhibition” value is -3% and the Z score stood at 0.64.

Take `CC1(C)CC(C(=O)Nc2nc3nccnc3s2)C1`: the “% Inhibition” value was -5% and the Z score was determined as 0.99.

As for `CCc1ccccc1NC(=O)Cn1ccnc1CN1CCOCC1`, the “% Inhibition” value is listed as -14% and the Z score turned out to be 1.9.

Consider `O=C1CC(c2ccccc2)N(C(=O)CCC2CCCO2)CCN1` (stereo not drawn), for which the “% Inhibition” value was -13% and the Z score worked out at 2.53.

As to `CCC(NS(=O)(=O)c1cccc2c1nnn2C)[C@H]1C[C@H](O)C1` (stereo partly drawn), the “% Inhibition” value is -3% and the Z score is 0.51.

Consider `O=C(Cc1cccc2ccccc12)N1CCC(Cc2ccccc2)CC1`, for which the “% Inhibition” value is reported as 9% and the Z score was -1.32.

For the compound `COc1ccc2cc1Oc1cccc(c1)CO[C@H]1CCN(C(=O)CN3CCC(O)CC3)C[C@H]1NC(=O)CC2`, the “% Inhibition” value is given as -23% and the Z score is listed as 2.88.

On to `O=C(Nc1ccsc1-c1nc(C2CC2)no1)c1cc(C2CC2)on1`, for which the “% Inhibition” value was -10% and the Z score was determined as 1.87.

For the compound `COc1ccc2nc(C)c(C(=O)N3CC(=O)N(C)[C@@H](C)C3)n2n1`, the “% Inhibition” value is 3% and the Z score is reported as -0.47.

With `Cc1n[nH]cc1CN[C@@H](CN1CCCC1=O)c1cccc(C(F)(F)F)c1`, the “% Inhibition” value is -9% and the Z score was found to be 1.1.

In the case of `CNc1ccccc1C(C)(C)c1cc[nH]n1`, the “% Inhibition” value is 30% and the Z score was -3.4.

Turning to `C[C@@H](CCNC(=O)OC(C)(C)C)Nc1cnn(-c2ccncc2)c1`, the “% Inhibition” value was -15% and the Z score is on record as 2.18.

As to `CC1(C)C(O)CC1NC(=O)Nc1ccncn1` (stereo not drawn), the “% Inhibition” value is -8% and the Z score is listed as 1.55.

`CCC[C@H](C)c1c(-c2ccccc2)ncn1CCS(C)(=O)=O`: the “% Inhibition” value is listed as -13% and the Z score is 1.24.

Regarding `COC(=O)N1CC2CCC1C(c1noc(C(C)c3cnn(C)c3)n1)C2` (stereo not drawn), the “% Inhibition” value is recorded as -7% and the Z score was found to be 1.2.

For the compound `Cc1ccc(F)c(C(=O)NCc2c(C(=O)O)oc3ccccc23)c1`, the “% Inhibition” value was -2% and the Z score was 0.21.

For the compound `COc1cc(Br)ccc1CCCN1CCCS1(=O)=O`, the “% Inhibition” value is recorded as -2% and the Z score worked out at 0.33.

On to `CCCC[C@@H]1C[C@@H]1C(=O)NCCc1noc(C(F)(F)F)n1`, for which the “% Inhibition” value was -7% and the Z score is on record as 1.35.

As for `COc1cccc(N2CCN(C(=O)c3ccc4c(c3)OCCO4)CC2)c1`, the “% Inhibition” value is -1% and the Z score amounted to 0.14.

Turning to `CCOc1ccccc1NC(=O)Cn1nc(-c2ccco2)n(C2CC2)c1=O`, the “% Inhibition” value is -18% and the Z score came to 2.03.

For the compound `c1ccc(-c2cccc(N3CCC(N4CCOCC4)CC3)c2)cc1`, the “% Inhibition” value is -8% and the Z score worked out at 1.36.

As to `CCc1noc(C)c1CNC(=O)N1CC[C@H](O)[C@@H](C2CCCC2)C1`, the “% Inhibition” value is 5% and the Z score is recorded as -0.98.

For the compound `Cc1nc([C@H](C)N(C)S(=O)(=O)c2c(C)nn(C)c2Cl)c(C)s1`, the “% Inhibition” value is on record as -19% and the Z score is 2.61.

As to `OC[C@H]1CCCCN1CCNCc1c(Cl)cncc1Cl`, the “% Inhibition” value was -13% and the Z score is 2.05.

`CCC(CC)(CC)C(=O)NC[C@H]1COCCN1Cc1ccc2c(c1)OCCO2`: the “% Inhibition” value is given as 19% and the Z score is listed as -2.44.

For the compound `O=C(NC[C@@H](O)Cc1ccc(F)cc1F)c1ccoc1`, the “% Inhibition” value was -18% and the Z score turned out to be 3.41.

As for `O=C([C@H]1CC12CCN(CC1CC1)CC2)N1CCN(C/C=C/c2ccccc2)CC1`, the “% Inhibition” value is listed as -6% and the Z score was 1.23.

On to `CN(CCc1cnn(C)c1)Cc1ccc(Cl)o1`, for which the “% Inhibition” value is -1% and the Z score was found to be 0.13.

On to `CCCN1C(=O)c2ccccc2C(C(=O)N2CCC(C)CC2)C1c1cc(OC)c(OC)c(OC)c1` (stereo not drawn), for which the “% Inhibition” value was -6% and the Z score was 0.68.

Regarding `C[C@H]1CN(C(=O)Cn2ccc(=O)[nH]c2=O)C[C@]1(O)C1CCC1`, the “% Inhibition” value was -9% and the Z score amounted to 1.17.

For the compound `c1ccc(OCCNC2CCN(c3ncnc4c3CCC4)CC2)cc1`, the “% Inhibition” value is on record as -12% and the Z score is 1.7.

As to `Cc1cc(CNC(=O)c2ccc3oc(N(C)C)nc3c2)n(C)n1`, the “% Inhibition” value amounted to 6% and the Z score is -0.69.

As to `CC[C@H](C)NC(=O)C(=O)NCCC1CCCC1`, the “% Inhibition” value was -4% and the Z score was 0.44.

Take `CCn1nc(C(=O)O)c2c1CC[C@H](N1CCN(C/C=C/c3ccccc3)CC1)C2`: the “% Inhibition” value is listed as -10% and the Z score is given as 1.54.

Consider `Cc1ccc(OCCN)c(C(=O)NC[C@H]2CN(S(C)(=O)=O)CCO2)c1`, for which the “% Inhibition” value is -7% and the Z score was found to be 0.97.

Regarding `O=C(c1cc(Cl)ccc1F)N1CCCC[C@@H]1CN1CCCC1`, the “% Inhibition” value is listed as -18% and the Z score is 2.27.

With `O=S(=O)(Nc1cccc(-c2ccc(N3CCCCC3)nn2)c1)c1ccc(F)cc1F`, the “% Inhibition” value is listed as -18% and the Z score is given as 2.51.

Turning to `CCCC1(O)CCN(C(=O)CC(C)(C)Cc2ccc(Cl)cc2)CC1`, the “% Inhibition” value is listed as 0% and the Z score is -0.04.

Regarding `c1ccc(-n2cc(-c3noc(C4CCCCC4)n3)nn2)cc1`, the “% Inhibition” value is -19% and the Z score came out at 3.83.

With `CC(C)NC(=O)N(CCN1CCOCC1)CC(=O)N1N=C(c2cccn2C)C[C@H]1c1ccc2c(c1)OCO2`, the “% Inhibition” value is given as -13% and the Z score is 2.07.

On to `O=C(Nc1cccc(OCCF)c1)N1CCC2(c3ccccc3)C(C1)C2(F)F` (stereo not drawn), for which the “% Inhibition” value was -1% and the Z score was 0.1.

On to `O=C(c1ccco1)N1CCC(C(=O)N2CCN(c3ccccc3Cl)CC2)CC1`, for which the “% Inhibition” value was found to be 0% and the Z score was 0.

Regarding `CCc1nccn1C1CCCN(C(C)C(=O)Nc2cc(C)no2)C1` (stereo not drawn), the “% Inhibition” value is -4% and the Z score is listed as 0.44.

For `Cn1cc(C(=O)OCC(=O)Nc2ccc(S(N)(=O)=O)cc2)cn1`, the “% Inhibition” value was 0% and the Z score was -0.04.
